PubChem BioAssay AID1240 (Sanford-Burnham Center for Chemical Genomics, 2008)
The whole screen tested about 50,000 compounds, of which about 800 (1.6%) showed an effect of 50% or more. This is one part of the list.

molecular target: Bcl-2-like protein 10 (Homo sapiens) (UniProt Q9HD36); experiment: Phenotype converters, Bcl-B/TR3 peptide binding displacement, primary biochemical FP (AID 1240); settings: GST-Bcl-B / FITC-TR3 peptide fluorescence polarization; stronger effect = higher value; compound at 3.75 mg/L;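 also: 0% = Bcl-B with tracer peptide and DMSO and 100% = tracer peptide lacking Bcl-B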
Sequence of UniProt Q9HD36 (Q9HD36 whole entry, looked up): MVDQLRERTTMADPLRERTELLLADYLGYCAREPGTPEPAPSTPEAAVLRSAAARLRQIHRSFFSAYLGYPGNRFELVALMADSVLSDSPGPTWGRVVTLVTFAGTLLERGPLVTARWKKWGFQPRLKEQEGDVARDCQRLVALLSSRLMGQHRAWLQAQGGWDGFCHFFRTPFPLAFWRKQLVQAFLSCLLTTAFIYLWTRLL

Structure (SMILES)	displacement
O=C(CN(CCc1ccccc1)S(=O)(=O)c1ccccc1)Nc1ccc(Cl)cc1Cl	4.5%
COCCNS(=O)(=O)c1ccc(Cl)cc1	3.9%
Cc1ccc(C(=O)N/C(=C\c2ccc(C(C)C)cc2)C(=O)NCC(C)C)cc1	8.8%
Cc1cc(C)n2nc(-c3ccc(I)cc3)cc2n1	-6.8%
CCOc1cc(/C=N/N=C2/NC(=O)CS2)cc(I)c1O	-7.8%
O=C(Nc1ccc2oc(-c3ccc(Cl)cc3Cl)nc2c1)c1ccccc1	-3.1%
COC(=O)c1cccc(NC(=O)/C=C/c2ccccc2)c1	17.7%
COc1ccccc1NC(=O)C1=C(C)NC(=S)NC1c1ccc(F)cc1 (stereo not drawn)	-13.5%
COc1ccc(OC)c(C2Sc3ccccc3NC3=C2C(=O)c2ccccc23)c1 (stereo not drawn)	7.1%
O=C1/C(=C\c2ccc(N3N=C(c4ccccc4)CC3c3ccccc3)cc2)SC(=S)N1C1CCS(=O)(=O)C1 (stereo not drawn)	-14.9%
CC(C)(C)C1=CC(=C(C#N)C#N)C(C(C)(C)C)C(=O)C1=O (stereo not drawn)	2.2%
CCOC(=O)c1c(NC(=O)CSc2nnc3c4ccccc4n(CC)c3n2)sc2c1CCC2	10.6%
CCOC(=O)c1c(NC(=O)CSc2nnc(C)c(=O)[nH]2)sc2c1CCCC2	9.8%
O=C(NC(=S)Nc1nc(-c2ccccc2)cs1)c1ccc(Cl)cc1	12.6%
Cc1ccc(NC(=O)COc2ccc(Cl)cc2Cl)cc1C	5.8%
COc1ccc(CCN2C(=O)CSC2c2ccc(Cl)cc2Cl)cc1OC (stereo not drawn)	-3.8%
Cc1ccc(OCC(N)=O)c(Br)c1	4.8%
Cc1cc(C)c(/C(=C2\OC(=O)c3ccccc32)[N+](=O)[O-])cc1C	-8.6%
CCOc1cc2oc(=O)c(CC)c(C)c2cc1CC	-5.3%
COc1ccc(N(CC(=O)Nc2ccc(OC)c(OC)c2)S(C)(=O)=O)c(OC)c1	-5%
COc1ccc(C(=O)NCCSCc2ccccc2Cl)cc1	-1.3%
Cc1ccccc1NC(=O)c1cc(C(=O)Nc2ccccc2C)n(C)n1	0.6%

Structure (SMILES)	displacement
CCOC(=O)C(=CNc1ccc(OCC)cc1)C(=O)OCC	0.2%
COc1cc(/C=C2/SC(=S)N(C)C2=O)cc(Br)c1OCCOc1ccccc1C	-2%
CCOC(=O)C1=C(C)NC2=C(C(=O)CC(C)(C)C2)C1c1ccc(OCc2ccc(C)cc2)c(OC)c1 (stereo not drawn)	-8.7%
COc1cccc(N2C(=O)NC(=O)/C(=C/C=C/c3ccccc3[N+](=O)[O-])C2=O)c1	1.8%
COCCNC(=O)CN(c1ccccc1OC)S(=O)(=O)c1ccccc1	5.7%
CCOC(=O)c1ccc(N=CC2=C(O)CC(C)(C)CC2=O)cc1	-8.1%
O=C(O)CCCCCN1C(=O)C(=O)/C(=C(\O)c2ccc(Br)cc2)C1c1ccc2c(c1)OCO2 (stereo not drawn)	0.9%
COCCOC(=O)C1=C(C)NC2=C(C(=O)CC(C)(C)C2)C1c1cccc(Br)c1 (stereo not drawn)	5.4%
Cc1ccc(OCC(=O)Nc2ccc(F)cc2)c(Br)c1	-10.9%
COc1cc(Br)c(CNc2cccc(C)c2)cc1OC	4.8%
O=C(/C=C/c1cccc([N+](=O)[O-])c1)Nc1cccc(-c2nc3cc(Cl)ccc3o2)c1	33.9%
C/C(=N\N=C1\NC(=O)C(CC(=O)Nc2ccccc2C)S1)c1ccc(F)cc1 (stereo not drawn)	12.3%
CCC(C)NC(=O)CN(c1ccc(Oc2ccccc2)cc1)S(C)(=O)=O (stereo not drawn)	-11.5%
CCOC(=O)c1cc(-c2ccc(I)cc2)nc2ccccc12	-10.1%
COc1cc(/C=C2/C(=O)NN(c3ccccc3)C2=O)ccc1O	-33.9%
COc1ccc(N2C(=O)CC(Sc3nc4ccccc4s3)C2=O)cc1 (stereo not drawn)	-30.1%
O=C1C(=O)N(c2ccccc2)C(c2ccccc2)/C1=C(\O)c1ccc(Br)cc1 (stereo not drawn)	-1%
COc1ccc(NC(=O)COc2ccc(-c3ccc(C)cc3)cc2)cc1	-6.3%
CNc1nnc(SCc2c(F)cccc2Cl)s1	-1.9%
O=C(CCc1ccccc1)ONC(=O)c1ccc(Cl)cc1	10.5%
Cc1cnn(-c2cc(N/N=C/c3ccccc3)ncn2)c1	-10.9%
Cc1ccc2c(Cl)c(C(=O)Nc3cccc(C(F)(F)F)c3)sc2c1	5.4%

Structure (SMILES)	displacement
COc1cc(OC)c(OC)cc1CN1CCN(C(=O)c2ccc(-c3ccccc3)cc2)CC1	-13.2%
Cc1ccc(OCCCCN2CCC(C)CC2)c(Cl)c1	-6.9%
COc1ccc(Br)cc1/C=N/OC(C)=O	0.6%
C/C(=N\NC(=O)c1cc(-c2cccc([N+](=O)[O-])c2)n[nH]1)c1ccccc1O	-38.6%
CCc1cccc(C)c1NC(=O)CCOc1ccccc1	-8.1%
COc1ccc(CCN2C(=O)CC(N3CCN(C/C=C\c4ccccc4)CC3)C2=O)cc1OC (stereo not drawn)	-8%
N#C/C(=C\c1ccc(-c2ccc(S(N)(=O)=O)cc2)o1)C(N)=O	-12.2%
Cc1cc(=O)oc2c(C)c3occ(-c4ccccc4)c3cc12	8.7%
COc1ccc(-c2cc(C(=O)Nc3ccc(F)cc3)c3ccccc3n2)cc1OC	-13.4%
O=[N+]([O-])c1ccc(NCCNS(=O)(=O)Cc2ccccc2)cc1	-7.8%
COc1ccccc1OCC(=O)Nc1ccc(S(N)(=O)=O)cc1	6.7%
O=C(c1ccc(Br)o1)N1CCN(c2ccc(Cl)cc2)CC1	6.8%
CCOc1ccc(C2CC(=O)NC(SCC#N)=C2C#N)cc1OC (stereo not drawn)	-8.9%
CCOc1ccc(N2C(=O)/C(=C/c3ccc(-c4ccc([N+](=O)[O-])cc4C)o3)C(=O)NC2=S)cc1	-5.3%
COc1cc(NS(=O)(=O)c2cc(Cl)ccc2Cl)c2ncccc2c1	-2.6%
CCC(=O)c1ccc(N2CCN(C(=O)c3ccccc3Br)CC2)c(F)c1	-13.4%
COc1ccc(C2C3C(=O)N(c4ccc(F)cc4)C(=O)C3ON2c2ccccc2)cc1 (stereo not drawn)	-3.7%
CCCc1c(C)[nH]c2ccc(NC(C)=O)cc2c1=O	-1.3%
O=C(Nc1ccc(-c2ccccc2)cc1)c1cccnc1	1.2%
O=C(Nc1ccc(Cc2ccc(NC(=O)C(F)(F)F)c(Cl)c2)cc1Cl)C(F)(F)F	-2.5%
COC(=O)C1=C(C(=O)OC)SC(=C2C(=S)C(C)(C)N(C(=O)c3cccc(F)c3)c3c(OC)cccc32)S1	9.1%
O=C(Nc1nc(-c2ccc3ccccc3c2)cs1)c1ccc(Cl)cc1[N+](=O)[O-]	-0.8%

Structure (SMILES)	displacement
O=C(Nc1ccc(OC(F)(F)F)cc1)c1ccc(OCc2ccccc2)cc1	-18.3%
O=C(CC1Sc2ccccc2NC1=O)Nc1ccc(OC(F)F)cc1 (stereo not drawn)	-5.2%
COc1ccc(CCNC(=O)c2ccc3c(c2)OCO3)cc1OC	5.4%
CCOC(=O)c1cc2c(nc1NC(=S)Nc1ccccc1)CC(C)(C)OC2	11%
CCSc1nnc(-c2ccc(OC)cc2)c2ccccc12	-7.7%
O=C(NCC1(c2ccccc2)CCOCC1)C1COc2ccccc2O1 (stereo not drawn)	-8.6%
O=C(CSc1nc2sc3c(c2c(=O)[nH]1)CCCC3)NCCCO	-11.4%
Cc1ccccc1NC1=C(Cl)C(=O)N(c2cccc(C)c2C)C1=O	13.8%
O=C(N/N=C/c1ccc(OC(=O)c2ccc(Br)cc2)cc1)c1cccc([N+](=O)[O-])c1	7.8%
O=C(/C=C/c1cn(-c2ccccc2)nc1-c1ccccc1)N1CCOCC1	7.3%
COc1ccc(-c2csc(NC(=O)c3cccc(Cl)c3)c2C(=O)O)cc1	3.2%
COc1cc(/C=C2/C(=O)NN(c3ccc(C)c(C)c3)C2=O)cc(I)c1O	-75%
CCCOc1ccc(C(=O)Nc2cccc(C(C)=O)c2)cc1	-10.6%
Cc1c(C(=O)Nc2cccc(S(N)(=O)=O)c2)oc2ccc(Cl)cc12	-1.9%
O=C1/C(=C\c2ccc(-c3ccc([N+](=O)[O-])cc3Br)o2)SC(=S)N1c1ccccc1	17.4%
COc1cc(C2C3=C(CC(C)(C)CC3=O)OC3=C2C(=O)CC(C)(C)C3)cc(OC)c1OC(C)=O	-1.3%
Cc1ccc(Cl)c(OCCCCN2CCOCC2)c1	-12.1%
Brc1ccc(CC(Cc2nc3ccccc3[nH]2)c2nc3ccccc3[nH]2)cc1 (stereo not drawn)	-6.3%
CNC(=O)C(=O)NCCc1ccc(Cl)cc1	11.6%
Cc1cc(N2CCC(C)CC2)n2c(nc3ccccc32)c1C#N	1.8%
O=C1/C(=C\Nc2ccccc2O)CCc2ccccc21	3.8%
N#Cc1c2nc[nH]c(=O)c2c2n1CCC2	6.1%

Structure (SMILES)	displacement
CCc1ccccc1N(CC(=O)N1CCCC1)S(C)(=O)=O	-2.5%
O=C(O)c1ccc(S(=O)(=O)c2ccc(Sc3ccc(C(=O)O)c(C(=O)O)c3)cc2)cc1	2.4%
COc1ccc(C(=O)N2CCN(Cc3ccc(OC)c(Br)c3)CC2)cc1	-7%
Cc1cc(C)cc(NC(=O)CN(c2ccc(Oc3ccccc3)cc2)S(C)(=O)=O)c1	-1.3%
COc1ccc(-c2cc(C(F)(F)F)n3ncc(C(=O)NCC4CCCO4)c3n2)cc1 (stereo not drawn)	0.9%
CCOC(=O)C(=Cc1cc(OC)c(OC)cc1Br)C(=O)OCC	2.6%
Cc1ccc(C23CC4CC(CC(C(=O)Nc5cccc(C(=O)O)c5)(C4)C2)C3)cc1	-4.8%
N#CC(C#N)=Cc1cn(-c2ccccc2)nc1-c1ccc(-c2ccc([N+](=O)[O-])cc2)o1	-5.9%
O=C(COc1ccc([N+](=O)[O-])cc1)Nc1ccccc1O	7.4%
COc1cc(CN2CCOCC2)cc(C=O)c1O	-6.2%
Cc1ccc(C(=O)CC2(O)C(=O)Nc3ccc(Br)cc32)cc1 (stereo not drawn)	0.8%
O=C(O)CN(Cc1ccccc1)S(=O)(=O)c1ccccc1	-0.1%
CCOC(=O)c1c(NC(=O)/C=C/c2ccc(C)cc2)sc(C)c1C	-2.5%
CCCC(=O)Nc1sc2c(c1C(=O)OCC)CCCC2	2.6%
CC(C)CNc1nc(-c2ccc(Cl)cc2)nc2ccccc12	-2.5%
COc1cc(C(=S)N2CCOCC2)ccc1OCc1ccccc1	-2.8%
COc1cc(C=O)c(Br)c(OC)c1OC	7.2%
O=C(/C=C/NCc1ccccc1)c1ccc(Cl)cc1	-7.7%
O=C1CC(c2ccccc2C(F)(F)F)c2ccccc2N1 (stereo not drawn)	-9%
Cc1ccc(N(CC(=O)Nc2ccccc2Cl)S(=O)(=O)c2ccc(F)cc2)cc1	11.2%
